Experimental data: PMC7819943, “Rice protein-binding microarrays: a tool to detect cis-acting elements near promoter regions in rice”
Some of the results follow.

The sequences below were run against T1, OsWOX13 (Oryza sativa, UniProt Q5QMM3 1-267) (assay: protein-binding microarray (RPBM); PBS, 2% BSA, 51.3 ng/ul salmon testes DNA, 50 uM zinc acetate, 200 nM TF, 25 C, 1 h; high values mean tight binding). Settings: protein: recombinant; tags: N-terminal polyhistidine and DsRed monomer fusion (pET32a); label: CyDye5-dUTP incorporated in the synthesized complementary strand; 3' TTTTT single-stranded linker to array surface; dsDNA, one strand shown.
T1 sequence: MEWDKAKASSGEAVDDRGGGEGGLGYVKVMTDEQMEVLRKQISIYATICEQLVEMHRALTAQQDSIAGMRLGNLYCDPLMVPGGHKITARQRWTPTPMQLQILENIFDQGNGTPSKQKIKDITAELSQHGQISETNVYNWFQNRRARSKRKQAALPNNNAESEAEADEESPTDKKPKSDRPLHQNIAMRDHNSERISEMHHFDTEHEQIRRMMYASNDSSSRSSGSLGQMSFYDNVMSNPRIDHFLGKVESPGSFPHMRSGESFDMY
Method in brief: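 Per-feature fluorescence intensity (arbitrary units), read on an Axon 4000B scanner, is the binding signal. Transcription factors carrying an N-terminal polyhistidine tag and DsRed fusion were expressed in E. coli BL21-CodonPlus and purified on Ni–NTA. A custom Agilent array, made double-stranded by primer extension with Cy5-dUTP and blocked with 2% BSA, was incubated with 200 nM protein in PBS, 2% BSA, salmon testes DNA and 50 µM zinc acetate at 25 °C for 1 h and then washed.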

| Sequence | binding signal |
| --- | --- |
| CGAGTAAATTAACGCACGCTACAAAAGTTCAATAATGGCCCGGAGTCACCTAGTGCAG | 7200 fluorescence intensity (a.u.) |
| TGCACGTAATCTTCCTAATTAGCTAGCCCATTGGTATTTGCGGAGTCACCTAGTGCAG | 19800 fluorescence intensity (a.u.) |
| GTGAGATTAGACATTGCCACGTGGCTGGCGGTCTCGCAGCCGGAGTCACCTAGTGCAG | 4700 fluorescence intensity (a.u.) |
| AATTGGTCCGGTTTTAATAATTGACGGAGCATCTATACCCCGGAGTCACCTAGTGCAG | 4430 fluorescence intensity (a.u.) |
| AGAACAATCATCAACTTTTAACGGCACATTTACTAACAATCGGAGTCACCTAGTGCAG | 6910 fluorescence intensity (a.u.) |
| TAATTTGTTCTCAATCATACACACTCGCAAATTAATTCTACGGAGTCACCTAGTGCAG | 7820 fluorescence intensity (a.u.) |
| TTAATATTTATAATTAGTGTCTAAACATCTGATGTGATAGCGGAGTCACCTAGTGCAG | 18100 fluorescence intensity (a.u.) |
| TCCATGAGACATGATCATCAATTAATACATGTGCTGATCACGGAGTCACCTAGTGCAG | 12500 fluorescence intensity (a.u.) |
| CAATACTAAATTAACATGACTAACTTTCTCCCTTATGCAGCGGAGTCACCTAGTGCAG | 13500 fluorescence intensity (a.u.) |
| ACGCAAAACTGTGAAAATCATTAACGTGTATTTAATTGACCGGAGTCACCTAGTGCAG | 5900 fluorescence intensity (a.u.) |
| GCATGACATTTTCCAGTTTATTTTCTTCTTTCTTTCTCTCCGGAGTCACCTAGTGCAG | 5390 fluorescence intensity (a.u.) |
| AAAGCAATCAACCCATACCAACCGAGTTAGGCACGGTTCTCGGAGTCACCTAGTGCAG | 3390 fluorescence intensity (a.u.) |
| CTTTAAAATTAATTAAATTTGAAAATTAGTAACGAGGGGACGGAGTCACCTAGTGCAG | 26700 fluorescence intensity (a.u.) |
| CTTTAATTTCTATCCTGATCCATTAAGCGAGTGGTCTCAACGGAGTCACCTAGTGCAG | 13700 fluorescence intensity (a.u.) |
| TGGTAATAGAATAGTTTGGTGTACTTCTGTTTGGTGATGACGGAGTCACCTAGTGCAG | 3150 fluorescence intensity (a.u.) |
| GCGCTGATGAGTGATGACACGCGACAGCGAATCCGGCCGCCGGAGTCACCTAGTGCAG | 9110 fluorescence intensity (a.u.) |
| ATATGATTATTTGTACCCTCAAAAGAATATATGATTATTTCGGAGTCACCTAGTGCAG | 10300 fluorescence intensity (a.u.) |
| TTAAAATTAATTATATTTTCCCCTGTTCTGTTTGAGCATTCGGAGTCACCTAGTGCAG | 43900 fluorescence intensity (a.u.) |
| GGGTCATGAATTAGATTGGTCACTTTTGAGGGTCCTGAAGCGGAGTCACCTAGTGCAG | 11000 fluorescence intensity (a.u.) |
| GATAGATTGATGGATAAGGTGGACCTGTATGGGCTGAATCCGGAGTCACCTAGTGCAG | 41100 fluorescence intensity (a.u.) |
| TATACAGCTAATTAAGTATGTGAGTGCAGTGAAAGAGAGGCGGAGTCACCTAGTGCAG | 8690 fluorescence intensity (a.u.) |

| Sequence | binding signal |
| --- | --- |
| AACACAGTAACTTAATTAATATCACATCTGCACCCATATGCGGAGTCACCTAGTGCAG | 7800 fluorescence intensity (a.u.) |
| AGGCACATAAACTTGTTTGATTGTTGTGCAAAAGACTTGACGGAGTCACCTAGTGCAG | 3910 fluorescence intensity (a.u.) |
| GTACTGACAAAATTTTATGTTGTTTATGTTAATCTACAGTCGGAGTCACCTAGTGCAG | 4650 fluorescence intensity (a.u.) |
| AAGACGTGATGTTGTTGATTTCCATGTAACATTTGATGATCGGAGTCACCTAGTGCAG | 3860 fluorescence intensity (a.u.) |
| GCACAATCATGCTACTAATTACCCTTTTCAACCTATAAATCGGAGTCACCTAGTGCAG | 11200 fluorescence intensity (a.u.) |
| CTAAGTATAAATGCAATGTAATTGGGTATAACTACAAGTTCGGAGTCACCTAGTGCAG | 4420 fluorescence intensity (a.u.) |
| CTGTGATTTCCTTTTACTTTTATTTTCCGAACCAAAATAACGGAGTCACCTAGTGCAG | 18300 fluorescence intensity (a.u.) |
| CTCATAGTAATTAATATTTGGCCTTTGTGTTAATTCAGCTCGGAGTCACCTAGTGCAG | 7850 fluorescence intensity (a.u.) |
| ACCGTTGGATTTAATTACTAATAGGTACTGTTGTTATGAACGGAGTCACCTAGTGCAG | 3650 fluorescence intensity (a.u.) |
| GAAAATTAGATTTAATTTCAACTTGGCTTGGGTGGATGGACGGAGTCACCTAGTGCAG | 49500 fluorescence intensity (a.u.) |
| GATAGACTGCAAATCTGTAACAGGAGCATCAACAAAGTAGCGGAGTCACCTAGTGCAG | 12500 fluorescence intensity (a.u.) |
| AGAAATGGTTATGATTAGTTGAGATAGGAAAATAGGTGAACGGAGTCACCTAGTGCAG | 8960 fluorescence intensity (a.u.) |
| TTGGATTGGTCATATCCTGTATATAGCAATATTTTGGAATCGGAGTCACCTAGTGCAG | 3290 fluorescence intensity (a.u.) |
| TTAACAAGATATATTGATATGTGATATACCCACTAGACAACGGAGTCACCTAGTGCAG | 8580 fluorescence intensity (a.u.) |
| CCTTGCAACCATTTCAATCACCACACAACAATCCAACAAACGGAGTCACCTAGTGCAG | 5850 fluorescence intensity (a.u.) |
| ATGATAATTAGTAGTAGTACTCTATTATGAACACAATAAACGGAGTCACCTAGTGCAG | 10800 fluorescence intensity (a.u.) |
| AACAAATTTGACTTATGTAGCAAGTAATAAGTAGTAACCGCGGAGTCACCTAGTGCAG | 11300 fluorescence intensity (a.u.) |
| ATGTTACAAATTAGATTATTCCATATGCGTGACATATCTACGGAGTCACCTAGTGCAG | 9300 fluorescence intensity (a.u.) |
| GTAAAGATTGAAGGCCTGACCGAGGAGAATGTGAAGCTAACGGAGTCACCTAGTGCAG | 9570 fluorescence intensity (a.u.) |
| AAACGTTGACAGATTTGGCCCTCTCCCACACGAATGCTGCCGGAGTCACCTAGTGCAG | 18400 fluorescence intensity (a.u.) |
| ACAAAATCAATTACGAGCGCACAAGGAAAATAAAAGAAGTCGGAGTCACCTAGTGCAG | 8800 fluorescence intensity (a.u.) |
